Patent US20240026343A1, “METHOD FOR SCREENING DIMERIZED CYCLIC PEPTIDE” (AJINOMOTO CO., INC., priority 2021, published 2024)

System: HGF-Erk-SRE pathway
Assay: SRE luciferase reporter assay of aMD4dY-leucine zipper fusion dimers (Example 2)
Type: cell-based
Conditions: HEK293E cells with SRE reporter; cell-free expression reaction solution at 25- to 625-fold dilution; overnight stimulation; HGF 0 to 100 ng/mL as comparator; FIGS. 8-13
Description: The dimer of each aMD4dY-leucine zipper fusion was evaluated by luciferase assay. To 25 μL of Opti-MEM medium (Thermo Fisher Scientific), 0.6 μL of Attractene Transfection Reagent (QIAGEN) was added and incubated at room temperature for 5 minutes. To the above mixed solution, a mixed solution of 25 μL of Opti-MEM and 1 μL of SRE reporter vector (QIAGEN) was added and incubated at room temperature for 20 minutes. This mixed solution was added to a 96-well plate, HEK293E cells were seeded thereon at 40,000 cells/well, and incubated overnight at 37° C. in a 5% CO2 incubator. […]
Dual-Luciferase Reporter Assay System (Promega) was used for signal intensity detection. […] Activation of the HGF-Erk-SRE pathway was quantified by detecting Firefly luciferase luminescence from cell lysates with a plate reader. Subsequently, 50 μL of Glo & Stop reagent solution was added, and after 10 minutes, luminescence of Renilla luciferase, an internal standard, was detected to quantify the cell count. The signal activity of each sample was quantified as SRE activity=(luminescence intensity of Firefly luciferase)/(luminescence intensity of Renilla luciferase). […]

B1: aMD4dY-PA8-GCN4-cys: aMD4dY-GCN4 leucine zipper fusion, SEQ ID NO: 48 (protein)
chain: MAETCRQFNRRTHEVWNLDCGAAPAAPAPGRMKQLEDKVEELLSKNYHLENEVARLKKLVGERGGCGG
modifications: aMD4dY-PA8-GCN4-cys; DISULFID 5..20 Disulfide bridge between Cys-5 and Cys-20
With B1 the “relative reporter activity (SRE activity)” value was “found to have signal activation ability”.
